Test results as given in PubChem BioAssay AID1466 (National Center for Advancing Translational Sciences (NCATS), 2008).
Out of some 200,000 compounds screened, about 10 (0.005%) were called active. The inconclusive results got no clear call from the source; some entries with a clear call stand among them for comparison. Calls follow the shape of the dose curve; as a rule, active = well fitted inhibition curve with a large enough effect; inconclusive = small, poorly fitted or top-dose-only effect, or effect the other way, or another doubt; inactive = no such curve, though single readings can be large or run the other way. Where the call is inconclusive, the potency comes from a doubtful curve fit.

What follows are molecules tested against Lysosomal alpha-glucosidase (Homo sapiens) (UniProt P10253) (assay: qHTS Assay for Inhibitors of Human alpha-Glucosidase as a Potential Chaperone Treatment of Pompe Disease). Conditions: purified human GAA, 4-MU-alpha-glucoside fluorescence; activity change, negative = inhibition: at 76.9 µM (top of the series) unless noted.
In short: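 Enzyme (4 nM final) mixed with compound (up to 77 uM), then 4-MU-alpha-D-pyranoside (400 uM final) added; 20 min at room temperature, pH 5.0. Reaction stopped at pH 10, fluorescence read, AC50 derived by Hill fit.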
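For activity change, negative = inhibition in this document: plate controls were uninhibited enzyme wells for no effect and no-enzyme background for full effect.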
Potency is read from the fitted curve at half-maximal effect; tags tell the direction and shape of the fitted curve.

Potency, inconclusive:
C=CCn1c(SCCCC)nc(O)cc1=O 7.08 µM [inhibitor, single point]
CCOC(=O)COc1ccc2c(c1)C(=O)CC1(CCN(C(C)=O)CC1)O2 35.5 µM [activator, partial curve]
Cc1cccc(NC(=O)Cn2c(/C=C/c3ccccc3)nc3ccccc32)c1 56.2 µM [activator, single point]
CCCc1cc(-c2n[nH]c(C(=O)OCC)c2-c2cscn2)c(O)cc1O 7.08 µM [inhibitor, partial curve]
COc1ccc(-c2ccc(C#N)c(SCC(=O)NC3CC3)n2)cc1OC 28.2 µM [activator, partial curve]
COc1cc(C2NC(=S)NC(C)=C2C(=O)c2ccccc2)ccc1O (stereo unspecified) 56.2 µM [inhibitor, single point]
O=C(Nc1ccc(Cl)cc1)NC1CCCCC1Cc1ccco1 (stereo unspecified) 11.2 µM [inhibitor, single point]
O=C1N=c2ccccc2=C1c1sc(=S)n(-c2ccc(O)cc2)c1O 50.1 µM [inhibitor, single point]
Cc1ccc(NC(=O)CSC2=NCCN2)cc1 50.1 µM [inhibitor, single point]
COC(=O)c1ccc(NC(=O)c2ccccc2)o1 56.2 µM [inhibitor, single point]
Cc1ccccc1NS(=O)(=O)c1ccc2c(c1)n(C)c(=O)n2C 11.2 µM [inhibitor, single point]
CCOC(=O)N1CCC(NC(=O)C(CC(C)C)NC(=O)C2CCCCC2)CC1 (stereo unspecified) 1.12 µM [inhibitor, full curve, poor fit]
CCOC(=O)N1CCC(N2C(=O)c3ccccc3C2Nc2ccc(S(=O)(=O)N3CCCCC3)cc2)CC1 (stereo unspecified) 35.5 µM [inhibitor, single point]
COc1ccc(-c2nnc(SCC(=O)NC(=O)NCc3ccco3)o2)cc1 6.31 µM [inhibitor, single point]
CC(=O)c1ccc(OCC(O)CN2C(C)CCCC2C)cc1 (stereo unspecified) 25.1 µM [inhibitor, partial curve]
CCOC(=O)c1cc2c(=O)n3ccccc3nc2n(CCCOC)c1=NC(=O)C(C)(C)C 35.5 µM [activator, partial curve]
Cc1ccc(C2CC(c3ccc(F)cc3)Nc3nc(N)nn32)cc1 (stereo unspecified) 11.2 µM [inhibitor, single point]
CCN(Cc1cc(=O)[nH]c2ccccc12)C(=O)C(C)C 1.26 µM [inhibitor, single point]
COC(=O)c1sc(NC(=O)CSc2nc3cccnc3n2C2CCCCC2)nc1C 28.2 µM [inhibitor, single point]
CCC(C)NC(=O)CO/N=C/c1ccc(C(=O)OC)cc1 (stereo unspecified) 39.8 µM [inhibitor, partial curve]
Cn1nc(C(=O)NCc2cccnc2)c2ccccc2c1=O 56.2 µM [inhibitor, single point]
CN(C)c1ccc(/C=c2\sc3n(c2=O)CCCN=3)cc1 6.31 µM [inhibitor, single point]
O=C(O)c1cc(-c2ccc3c(c2)OCO3)nc2ccc(Br)cc12 28.2 µM [inhibitor, partial curve, poor fit]
CC(C)CNC(=S)NNC(=O)c1ccc2c(c1)OCO2 50.1 µM [inhibitor, single point]
O=C(O)Cn1cc2c(n1)CCCCC2 0.794 µM [inhibitor, full curve]
Cn1nc(-c2ccc(Cl)cc2)c2cc(C(=O)NCCCN3CCOCC3)sc21 56.2 µM [inhibitor, single point]
O=C(C1CCN(S(=O)(=O)c2cccc3nsnc23)CC1)N1CCCc2ccccc21 3.55 µM [inhibitor, full curve, poor fit]
Cc1ccc(S(=O)(=O)Nc2ccc(C(=O)OCC(=O)N(CCC#N)c3ccccc3)cc2)cc1C 11.2 µM [inhibitor, full curve]
COc1ccc(OC)c(S(=O)(=O)Nc2c(F)cccc2F)c1 50.1 µM [inhibitor, partial curve, poor fit]
O=C(O)c1cccc(NC(=O)C2C3C=CC(C3)C2C(=O)O)c1 (stereo unspecified) 31.6 µM [activator, partial curve]
COC(=O)Cc1cc(=O)oc2cc(O)ccc12 35.5 µM [activator, partial curve]
CCOC(=O)c1c(C)n(-c2ccc(C)cc2)c2c(CC(C)=O)c(Br)c(OC)c(O)c12 11.2 µM [inhibitor, partial curve, poor fit]
CC1CC(C)CN(CC(=O)NC(c2ccccc2)c2ccccc2)C1 (stereo unspecified) 22.4 µM [inhibitor, partial curve]
CCOC(=O)N=Nc1c(O)n(Cc2ccccc2)c2ccccc12 28.2 µM [inhibitor, single point]
CCc1cc2c(CN3CCN(C)CC3)cc(=O)oc2cc1O 35.5 µM [activator, partial curve]
CC(C)CC(C(=O)NC(=O)NCc1ccccc1)N1C(=O)c2ccccc2C1=O (stereo unspecified) 2.24 µM [inhibitor, full curve, poor fit]
O=C(COc1ccc(/C=N/NS(=O)(=O)c2ccccc2)cc1)N1CCOCC1 3.98 µM [inhibitor, single point]
COCCCn1c(SCC(=O)O)nc2cc(OC)c(OC)cc2c1=N 56.2 µM [activator, single point]
CC(=C1C(=O)c2ccccc2C1=O)N1CCN(Cc2ccccc2)CC1 56.2 µM [inhibitor, single point]
COc1ccc(S(=O)(=O)N2CCN(C3CCCCCCC3)CC2)cc1 0.891 µM [activator, full curve, poor fit]
CC(C(=O)N1CCCCC1)n1sc2ccccc2c1=O (stereo unspecified) 12.6 µM [inhibitor, single point]
CC(C)(C)C(=O)Nc1cc(S(=O)(=O)N2CCCCC2)ccc1N1CCCCC1 25.1 µM [inhibitor, partial curve, poor fit]
CCC(=O)Oc1ccc2c(C)c(Cl)c(=O)oc2c1 35.5 µM [activator, partial curve]
Cc1ccccc1NC(=S)C1=C(O)c2sccc2N(C)S1(=O)=O 50.1 µM [inhibitor, single point]
CC(NS(C)(=O)=O)C(c1cccs1)N1CCN(c2ccc(F)cc2)CC1 (stereo unspecified) 5.62 µM [inhibitor, full curve]
CCN(CC)S(=O)(=O)c1ccc(C(=O)N2CCN=C2SCc2cccnc2)cc1 56.2 µM [inhibitor, single point]
CN(C)c1cccc(NC(=O)CCc2ccccc2)c1 0.891 µM [inhibitor, full curve, poor fit]

Activity change, negative = inhibition, inconclusive:
COc1ccc(C(=O)NCC(=O)OCC(=O)N2N=C(c3ccc(Cl)cc3)CC2c2ccco2)cc1OC (stereo unspecified) -17.9% [inhibitor]
COc1ccccc1CN1CCNC(=O)C1CC(=O)O (stereo unspecified) 20.6% [activator]
COc1ccc(CNC(=O)C(c2ccco2)N(C(=O)c2ccccn2)c2ccccc2)cc1 (stereo unspecified) 16% [activator]
Cc1[nH]nc(N)c1-c1ccccc1 1.6% [activator]
Cc1cc(C)cc(C(=O)/C=C2\NC(=O)CS2)c1 -21.8% [inhibitor]
Cc1cccc(OCCCC(=O)Nc2ccccc2C(F)(F)F)c1 -16.7% [inhibitor]
O=C(COc1ccc(C(=O)c2ccc(F)cc2)cc1)NCc1ccc(F)cc1 -17% [inhibitor]
O=C(COC(=O)c1ccccc1C(=O)c1ccccc1)Nc1cccc([N+](=O)[O-])c1 -17.7% [inhibitor]
O=C1c2ccccc2NC(c2c(Cl)cccc2Cl)N1Cc1ccccc1 (stereo unspecified) 33.2% [activator]
CN(C)CCNc1c2c(c(C#N)c3nc4ccccc4n13)CCCC2 16.8% [activator]
CCOc1ccc(NS(=O)(=O)c2ccc(NS(=O)(=O)c3ccc(SC)cc3)cc2)cc1 -16.4% [inhibitor]
COc1cc2c(cc1OC)C(c1cc([N+](=O)[O-])ccc1O)NCC2 (stereo unspecified) 11.6% [activator]
Cc1ccc(S(=O)(=O)NC(C)C(c2cccs2)N2CCN(c3ccccc3)CC2)cc1 (stereo unspecified) -18.4% [inhibitor]

Activity change, negative = inhibition, inactive:
CCOc1ccc(-c2ccc(SC)nn2)cc1 -5.21%
CCOC(=O)/C(=N\Nc1cccc(C(F)(F)F)c1)N1CCOCC1 -4.25%
Cc1ccc2cc(CN(Cc3ccco3)C(=O)NCc3ccccc3)c(=O)[nH]c2c1C -8.48%
COc1ccc(C(=O)N/N=C/c2c(CO)cnc(C)c2O)cc1 -12.4%
COc1ccc(CNc2n[nH]c(NCc3ccc(OC)c(OC)c3)n2)cc1OC 1.96%
CC(=O)Nc1cc(C(C)(C)C)c(O)c(C(C)(C)C)c1 -10%
